# Over roughly 33,000 sequences, “E-score (-0.5 to 0.5)” has its median near -0.012; the highest 2% begin near 0.27. The list shows a part of the results.
# Target: T1, Vhr1 (UniProt P40522)
# T1 sequence: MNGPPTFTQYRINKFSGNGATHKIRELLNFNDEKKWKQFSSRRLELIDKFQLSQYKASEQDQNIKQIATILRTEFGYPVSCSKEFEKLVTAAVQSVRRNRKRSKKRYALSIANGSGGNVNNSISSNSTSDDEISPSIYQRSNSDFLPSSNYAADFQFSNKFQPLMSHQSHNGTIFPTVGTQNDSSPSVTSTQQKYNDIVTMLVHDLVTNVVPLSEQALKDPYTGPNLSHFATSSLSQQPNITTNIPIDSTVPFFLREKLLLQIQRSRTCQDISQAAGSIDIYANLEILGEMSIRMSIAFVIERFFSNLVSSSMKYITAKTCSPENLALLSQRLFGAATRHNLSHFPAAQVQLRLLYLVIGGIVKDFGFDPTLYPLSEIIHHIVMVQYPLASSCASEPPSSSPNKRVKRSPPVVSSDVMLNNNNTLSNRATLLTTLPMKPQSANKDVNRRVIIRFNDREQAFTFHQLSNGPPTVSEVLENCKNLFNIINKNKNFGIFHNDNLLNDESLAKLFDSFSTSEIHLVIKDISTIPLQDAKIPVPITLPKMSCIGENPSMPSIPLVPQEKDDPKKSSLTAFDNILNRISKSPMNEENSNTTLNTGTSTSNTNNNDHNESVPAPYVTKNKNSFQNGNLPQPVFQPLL
# Assay: PBM E-score (8-mer binding enrichment) (E-score (-0.5 to 0.5)); higher = stronger / more preferred TF binding; most listed sequences are background and not binding sites
# Conditions: protein concentration: 200 nM; construct: GST-full length
# In short: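 Masliner-normalised scans of fluorescent anti-GST signal were the basis for scoring. That signal came from GST-tagged yeast transcription factors applied at about 100-200 nM to double-stranded universal all-10-mer Agilent arrays on fresh or once-stripped slides. Each ungapped eight-base word, pooled with its reverse complement, received an E-score from the Universal PBM Analysis Suite.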
row,Sequence,PBM E-score
1,CAAGTCGG,-0.0435
2,GTAGGCAC,-0.144
3,CTACACAG,0.121
4,ACTTCCAA,-0.134
5,ATGCACAT,0.0847
6,ATTTGTCA,-0.0927
7,ATGTAAGA,0.0564
8,ACACGACG,-0.0012
9,AATCAAGT,0.174
10,AACTATGT,-0.0326
11,ACTAGAAT,0.0919
12,CCGGGGAG,0.0567
13,ACCAGGGA,-0.199
14,AGCATTTG,-0.202
15,AAAGAAGG,-0.247
16,GCGAAAGC,-0.0792
17,AGTACAGG,0.0326
18,ATAATGTC,0.0696
19,CCGTAACA,-0.105
20,CGGCTGGC,0.104
21,CACTCATA,0.179
22,CGATGCCA,-0.127
23,AATTGTTG,-0.132
24,GATAAAGA,-0.166
25,ACAGATTG,0.083

row,Sequence,PBM E-score
1,AAGGGCTC,-0.218
2,ACCACCTG,0.192
3,GCAGTCAC,0.353
4,CAAACCGC,0.017
5,ACGCGCAA,0.0839
6,ATGAGGCA,-0.27
7,GACGTTGC,0.0331
8,ATATGCGC,0.222
9,ATATCATA,0.216
10,AGGTACCC,-0.0665
11,CTTATAGC,-0.185
12,CATCCAAC,0.0877
13,GCAGTCGC,0.243
14,ATAGGGGA,-0.0258
15,GGCCGTGA,0.14
16,CGGCACCG,-0.0364
17,AATGCCGC,-0.0379
18,CACGACTC,0.378
19,GAACAACC,0.0146
20,CAATGCTC,-0.0728
21,ATTGTAAG,-0.0489
22,CAAACTTG,-0.0996
23,CATAGTAG,0.185
24,CTATGAGC,0.0885
25,AAGTCCCC,-0.297

row,Sequence,PBM E-score
1,AACCCGGG,0.0339
2,GAGGGTGA,0.153
3,TAGCTAGA,-0.119
4,AAGTACGG,0.0448
5,ATGACGAA,0.0557
6,CTACCAGC,0.0362
7,ACTCGGAC,0.226
8,CAGAGGGC,-0.146
9,ACTACAGG,0.12
10,AGTTTGAG,-0.0721
11,AGTATGAA,0.203
12,AGACTGCC,0.0225
13,CACCACCG,-0.0621
14,ACTAAGCT,0.0352
15,AGAAGCGG,-0.112
16,CCGTGGGC,-0.0369
17,AGCCAGTC,0.087
18,GCTCAGAC,0.0657
19,AACCCGTT,-0.0686
20,ACTCGAGT,0.26
21,CACCCAGC,0.0906
22,AGAATGAA,-0.0879
23,TAGTTGGA,0.0597
24,TCGGCTAA,-0.0416
25,AGACGGTA,-0.0722

row,Sequence,PBM E-score
1,GAAGCTCA,-0.0795
2,CGCCTCCC,-0.122
3,AGGCAGCC,-0.0232
4,AAAACGGG,0.0915
5,AATTGGGG,-0.139
6,TACACCGA,0.0677
7,ATATGCCA,0.168
8,AACCCGGT,-0.139
9,GAAAAGGC,-0.102
10,AACACATA,0.176
11,GTGCCTGA,-0.0567
12,TCAACAAA,0.144
13,ACGCGCAC,0.0131
14,GAAGAGCA,-0.26
15,CAAGAGCA,-0.0749
16,ATCCACCA,0.113
17,CCACGCAA,-0.0453
18,CTTGCTTA,-0.0134
19,CCACCGAC,0.165
20,AAAGAGAT,-0.169
21,TACAGATA,0.0424
22,AATCCTGC,0.00501
23,ACAACGGT,-0.0617
24,ACACGGTA,0.179
25,AAACGATG,-0.0491

row,Sequence,PBM E-score
1,TAGCTGCA,-0.18
2,ATATGGGC,0.0692
3,GCCTGAGA,-0.0729
4,AAGAACTC,-0.123
5,ATGTCATG,0.12
6,GCAAGCAC,-0.0739
7,TATACACA,0.155
8,CGAGACCA,0.0338
9,CGTCACAA,-0.0394
10,ATTCGTAA,-0.082
11,GATACCGC,0.142
12,ATCATGTA,0.206
13,CAGTTAGA,-0.187
14,CTACAAGC,-0.0967
15,GGTAGCGA,-0.0248
16,CTCGTTCC,0.0375
17,ACAAAATG,-0.0165
18,ATACGCTG,0.103
19,ATTCTATA,0.0275
20,TCCTATCA,-0.00908
21,CATGGGCG,0.204
22,CTAAGGTC,0.0041
23,GGACGAGA,-0.0215
24,AGATCCTG,-0.157
25,CAGTACCA,0.145

row,Sequence,PBM E-score
1,GTTACGCA,-0.0223
2,CCGCATCA,0.112
3,CAGTGGAA,-0.0748
4,CCTTAACC,-0.0868
5,CGGATACA,0.231
6,AATTGACG,-0.278
7,GATTAGGC,-0.0899
8,ACGATTAC,0.161
9,CATGGCCA,-0.194
10,CCAGAGCA,0.0496
11,ATGATCGC,0.0413
12,CCCCTCTC,-0.256
13,AGCGGGAA,0.00142
14,ATGACACA,0.268
15,CTTCCTCA,-0.0353
16,AATTGATA,0.13
17,CAATCTCA,0.028
18,CGGCCGCA,0.188
19,AAACCAGT,0.0233
20,AACTCCAT,-0.122
21,GCGGTTCC,0.0087
22,AAACGCGT,-0.034
23,GCAGCCAC,0.151
24,ATACTCCA,0.157
25,ACCCTGTG,0.0661

row,Sequence,PBM E-score
1,CCCGGTTA,-0.24
2,CGAACTCA,0.0509
3,GCACGACA,-0.0845
4,TCGAGAGA,-0.169
5,ACGGAATC,0.0679
6,AAAAGTCG,-0.0881
7,GTGATTAA,0.248
8,GATTCTAC,0.16
9,CTACCTAG,-0.186
10,AAGGTAAT,0.146
11,CGAGGGAC,-0.207
12,AACTGGCG,0.132
13,AATATTTC,-0.0551
14,AGTTTGCG,0.152
15,TAGGAGCA,-0.0685
16,CTGCCCTA,-0.101
17,AAGAATGG,-0.12
18,CGATCGTA,0.0235
19,GATGTCGA,0.00412
20,CTAAGCCC,-0.244
21,AGATTAGC,-0.166
22,GTGCAGAA,-0.249
